Among the data in publication PMC5505202 are response (Arbitrary units) values, retold here.

B1: unnamed (parent)
chain 1: MLPYTVNFKVSARTLTGALNAHNKAAVDWGWQGLIAYGCHSLVVVIDSITAQTLQVLEKHKADVVKVKWARENYHHNIGSPYCLRLASADVNGKIIVWDVAAGVAQCEIQEHAKPIQDVQWLWNQDASRDLLLAIHPPNYIVLWNADTGTKLWKKSYADNILSFSFDPFDPSHLTLLTSEGIVFISDFSPSKPPSGPGKKVYISSPHSSPAHNKLATATGAKKALNKVKILITQEKPSAEFITLNDCLQLAYLPSKRNHMLLLYPREILILDLEVNQTVGVIAIERTGVPFLQVIPCFQRDGLFCLHENGCITLRVRRSYNNIFTTSNEEPDPDPVQELTYDLRSQCDAIRVTKTVRPFSMVCCPVNENAAALVVSDGRVMIWELKSAVCNRNSRNSSSGVSPLYSPVSFCGIPVGVLQNKLPDLSLDNMIGQSAIAGEEHPRGSILREVHLKFLLTGLLSGLPAPQFAIRMCPPLTTKNIKMYQPLLAVGTSNGSVLVYHLTSGLLHKELSIHSCEVKGIEWTSLTSFLSFATSTPNNMGLVRNELQLVDLPTGRSIAFRGERGNDESAIEMIKVSHLKQYLAVVFRDKPLELWDVRTCTLLREMSKNFPTITALEWSPSHNLKSLRKKQLATREAMARQTVVSDTELSIVESSVISLLQEAESKSELSQNISAREHFVFTDIDGQVYHLTVEGNSVKDSARIPPDGSMGSITCIAWKGDTLVLGDMDGNLNFWDLKGRVSRGIPTHRSWVRKIRFAPGKGNQKLIAMYNDGAEVWDTKEVQMVSSLRSGRNVTFRILDVDWCTSDKVILASDDGCIRVLEMSMKSACFRMDEQELTEPVWCPYLLVPRASLALKAFLLHQPWNGQYSLDISHVDYPENEEIKNLLQEQLNSLSNDIKKLLLDPEFTLLQRCLLVSRLYGDESELHFWTVAAHYLHSLSQEKSASTTAPKEAAPRDKLSNPLDICYDVLCENAYFQKFQLERVNLQEVKRSTYDHTRKCTDQLLLLGQTDRAVQLLLETSADNQHYYCDSLKACLVTTVTSSGPSQSTIKLVATNMIANGKLAEGVQLLCLIDKAADACRYLQTYGEWNRAAWLAKVRLNPEECADVLRRWVDHLCSPQVNQKSKALLVLLSLGCFFSVAETLHSMRYFDRAALFVEACLKYGAFEVTEDTEKLITAIYADYARSLKNLGFKQGAVLFASKAGAAGKDLLNELESPKEEPIEE
chain 2: MCLAGCTPRKAAAPGRGALPRARLPRTAPAAATMFQPAAKRGFTIESLVAKDGGTGGGTGGGGAGSHLLAAAASEEPLRPTALNYPHPSAAEAAFVSGFPAAAAAGAGRSLYGGPELVFPEAMNHPALTVHPAHQLGASPLQPPHSFFGAQHRDPLHFYPWVLRNRFFGHRFQASDVPQDGLLLHGPFARKPKRIRTAFSPSQLLRLERAFEKNHYVVGAERKQLAGSLSLSETQVKVWFQNRRTKYKRQKLEEEGPESEQKKKGSHHINRWRIATKQANGEDIDVTSND

In the assay the parent is B1. The experiment in a line: co-immunoprecipitation (anti-Myc IP, anti-EMX1 immunoblot), densitometry of EMX1 band. The settings on record: with partner chain of the complex shown; coexpressed in HEK293 cells; three independent experiments; parent: 3.6e+04; read off a plot. In general terms: In western blotting, separated proteins are transferred to a membrane and probed.
chain 1 I436V: the response (Arbitrary units) came to 15000.
